Measurements taken from the supplement of paper PMC4166925.
± gives the standard deviation of the averaged measurements. In all, about 33,000 sequences were measured (“E-score (dimensionless, -0.5 to 0.5)”: median about -0.046, highest 2% from about 0.36 on). This is one part of the list.

Tested on: T1, SpTbr T-box DNA-binding domain (GST fusion)
T1 sequence: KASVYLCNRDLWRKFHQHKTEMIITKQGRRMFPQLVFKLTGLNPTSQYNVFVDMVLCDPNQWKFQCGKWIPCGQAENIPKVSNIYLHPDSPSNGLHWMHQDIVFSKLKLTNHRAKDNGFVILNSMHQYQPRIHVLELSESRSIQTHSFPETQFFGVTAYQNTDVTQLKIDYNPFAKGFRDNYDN
Assay: PBM E-score of 8-mer (E-score (dimensionless, -0.5 to 0.5)); Tbr is Tbrain of the sea star Patiria miniata (Pm) or the sea urchin Strongylocentrotus purpuratus (Sp); higher = stronger binding preference; most listed sequences are background and not binding sites
Conditions: the construct has about 5 more residues each side
Procedure, shortened: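 Universal Agilent oligonucleotide arrays, made double-stranded by primer extension, were incubated with 200 nM GST-fused Tbr T-box DNA-binding domain in PBS (pH 7.5). The protein was expressed in BL21 E. coli at 20 °C and purified by glutathione affinity chromatography. After scanning and quantification, the Universal PBM Analysis Suite assigned an enrichment E-score to each ungapped 8-mer, averaged over duplicate arrays.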

Sequence | PBM E-score of 8-mer
ATAGCTTC | -0.232 ± 0.042
GATACTAC | -0.138 ± 0.027
TTACGAAA | -0.128 ± 0.065
AACTATTG | 0.00025 ± 0.014
AAGCCATT | -0.117 ± 0.049
AGTAACCC | -0.157 ± 0.0023
CCCAAAGC | -0.202 ± 0.035
CCTCTCCG | -0.0582 ± 0.13
AGTGACAA | 0.397 ± 0.014
AGTAGGCA | -0.0551 ± 0.025
ACGACTCG | 0.232 ± 0.016
TCACGACA | 0.272 ± 0.02
AGATGAGG | -0.224 ± 0.021
AGGAGTGC | 0.0744 ± 0.064
GAAACCTC | -0.135 ± 0.14
CAGGTAAC | 0.1535 ± 0.0014
CGTATCTA | -0.232 ± 0.004
ACAGAAAC | 0.0632 ± 0.015
CCCTCAAC | -0.136 ± 0.012
CGATATCG | 0.222 ± 0.029
ATCTGACA | 0.167 ± 0.018
AGCTCTCG | -0.074 ± 0.02
CCATGTAG | -0.2268 ± 0.0017
AATGCCCT | -0.179 ± 0.06
AAGAAAGA | -0.235 ± 0.0079

Sequence | PBM E-score of 8-mer
CTAGAAAC | -0.109 ± 0.031
GGTGCCGA | 0.36 ± 0.0091
ACGGTCGG | -0.16 ± 0.017
TGATCGCA | 0.322 ± 0.025
GCAGATCC | -0.0736 ± 0.062
CCACATTC | 0.14 ± 0.06
AGGGGGCC | -0.217 ± 0.058
CATTAGCA | 0.274 ± 0.0072
TGACCTAA | -0.177 ± 0.015
AGGTGACT | 0.276 ± 0.001
CTTTCCGC | 0.0156 ± 0.018
ATCCTGTG | 0.00404 ± 0.015
GATAGACA | -0.105 ± 0.065
CCAGTCGG | -0.165 ± 0.051
ATGGGCGG | -0.0157 ± 0.07
AATAATTA | -0.0779 ± 0.088
AAGTATGG | -0.286 ± 0.029
ATTAGTAC | -0.00749 ± 0.045
CTAAGATC | -0.119 ± 0.044
CCCAATAG | 0.0509 ± 0.13
AGCGTTTC | -0.126 ± 0.022
GCGTCCGA | -0.048 ± 0.026
GGTAGGTA | -0.175 ± 0.033
AGCCTTTG | -0.222 ± 0.051
AACGGAAT | 0.0951 ± 0.12

Sequence | PBM E-score of 8-mer
ACAGCCGA | 0.0547 ± 0.034
CGAGCACA | -0.0373 ± 0.063
GAATGTAA | -0.163 ± 0.0047
CGCGCTAA | 0.338 ± 0.0063
ATTCCAAC | -0.193 ± 0.04
GCCCGGCC | -0.158 ± 0.019
AAACATTC | -0.0068 ± 0.0056
GGCGGATA | -0.294 ± 0.015
AGATTAGG | -0.171 ± 0.017
GCCAACCA | 0.0609 ± 0.021
CGTGCGTA | -0.00609 ± 0.055
AGCCGGAA | -0.233 ± 0.011
ACGTAGCA | 0.0591 ± 0.083
AAGGTTAA | -0.128 ± 0.084
CGACGACC | 0.138 ± 0.018
CGCCTTCC | 0.033 ± 0.0063
GACAACTC | 0.252 ± 0.019
ACCCCCTC | -0.0672 ± 0.037
CCATGGTC | -0.0694 ± 0.056
ATGCAGAG | -0.18 ± 0.023
ATGGCGAA | 0.0787 ± 0.01
GGCTGAGA | 0.0781 ± 0.035
AAAAACAA | -0.165 ± 0.049
CGTCCTCA | 0.0207 ± 0.0083
GTACCGAA | -0.254 ± 0.0068

Sequence | PBM E-score of 8-mer
ACGAATTC | -0.0844 ± 0.07
CGCACCAA | 0.2705 ± 0.0014
GGGATCGA | -0.161 ± 0.0078
ACCGTACC | -0.0313 ± 0.04
CAGCCCCC | -0.0955 ± 0.021
CTGGGAGA | -0.0994 ± 0.031
AGCTGGGG | -0.224 ± 0.038
CCCCCGGC | -0.134 ± 0.017
ATATGGAG | -0.204 ± 0.01
GATCCCGA | -0.164 ± 0.0081
GTCCATCA | -0.219 ± 0.0084
GTAAGGCA | -0.2643 ± 0.0015
AGGTCCCG | -0.195 ± 0.016
CACGGCTG | 0.158 ± 0.0055
GATCGGGA | -0.172 ± 0.013
CTAAATAG | -0.0998 ± 0.07
AGTCAATG | -0.173 ± 0.12
AGGGGAAG | -0.0777 ± 0.06
CCTGTGTC | 0.0515 ± 0.0033
CGTAGTAC | -0.287 ± 0.056
CCGCTCAA | -0.188 ± 0.093
GCCTCCGA | -0.0614 ± 0.071
ATCAGCGC | 0.131 ± 0.014
AGACACTG | -0.0737 ± 0.012
CTGCATCA | -0.1 ± 0.036

Sequence | PBM E-score of 8-mer
AAAGGGGT | 0.0258 ± 0.013
CCTACTTC | -0.172 ± 0.055
ATATACAC | 0.00434 ± 0.022
AACAACGG | -0.0918 ± 0.00098
CAAGACTC | -0.0934 ± 0.015
CCGGTCAA | -0.0653 ± 0.027
CGGCACCC | 0.254 ± 0.038
CATCGCGA | 0.197 ± 0.0055
CGGTCAAA | -0.133 ± 0.058
GGAGGAAC | 0.0261 ± 0.0092
ATAAGGCG | 0.132 ± 0.032
AGCTCAAA | -0.0834 ± 0.014
CGACGTGA | 0.1944 ± 0.0016
ATCTCAAG | -0.194 ± 0.006
AGGCTTGA | -0.0292 ± 0.044
CAGGTGGC | 0.323 ± 0.0069
ATAGTTGC | -0.0102 ± 0.0014
ACTTGAAT | -0.136 ± 0.049
ACCAGCCG | 0.103 ± 0.028
CGTAGTCA | 0.058 ± 0.058
TACAGAAA | -0.16 ± 0.068
CGACCTCC | -0.143 ± 0.083
CCAGTTCA | 0.0129 ± 0.036
GAGGATAC | 0.118 ± 0.007
CCTCAGTA | -0.105 ± 0.0033

Sequence | PBM E-score of 8-mer
AATCATTA | -0.0678 ± 0.095
ACTTCAGA | -0.173 ± 0.046
TAGCGCCA | 0.334 ± 0.025
CAACTGAG | -0.018 ± 0.0018
GACAACCA | 0.262 ± 0.0098
CGGTCAAC | 0.0294 ± 0.072
AGACGCCG | -0.0415 ± 0.057
TAGGGATA | -0.323 ± 0.053
GAAGCCGA | -0.0138 ± 0.031
CGGCCCAC | -0.155 ± 0.03
GGCATCGA | -0.0435 ± 0.034
CCCTCCGC | 0.0925 ± 0.039
AATACACA | 0.153 ± 0.049
ATGTGGAA | 0.0153 ± 0.034
GGAATAAC | 0.0802 ± 0.023
CTGGTTAA | -0.131 ± 0.031
CCTCTTAG | -0.103 ± 0.044
TAGTTTGA | -0.107 ± 0.065
CTCGTACA | -0.151 ± 0.039
CGGGAATC | 0.0186 ± 0.011
GCTGGGCC | -0.144 ± 0.0084
TATTCACA | 0.423 ± 0.023
CACTCGCG | 0.305 ± 0.055
ACCTATGG | 0.169 ± 0.063
CTATCCCA | 0.0227 ± 0.039

Sequence | PBM E-score of 8-mer
GAGAAACC | 0.0143 ± 0.067
AGACGAGG | -0.237 ± 0.07
AGTAATTA | -0.0156 ± 0.0019
CCTCCTTA | 0.0284 ± 0.081
ACGTGTGA | 0.4797 ± 0.0017
ATAACGCC | 0.28 ± 0.032
ACTGTTCG | 0.162 ± 0.077
ATCGCGTA | 0.13 ± 0.024
TAAACGTA | -0.15 ± 0.057
AACTCTTC | -0.0442 ± 0.019
AACCGGTG | -0.0313 ± 0.081
GTCGATTA | -0.0532 ± 0.082
TCACGTAA | -0.0779 ± 0.033
CGGCCAAA | -0.0415 ± 0.0054
ATTGTTAA | 0.268 ± 0.029
CACCGCTA | 0.137 ± 0.11
CTGTTAAG | -0.00328 ± 0.026
AACTGTGT | 0.19 ± 0.0056
GCTTGACA | 0.258 ± 0.034
AGCAAGCA | -0.0131 ± 0.022
TCCATGAA | -0.206 ± 0.0095
CGAGCAAC | 0.0555 ± 0.018
GGTTACCA | -0.0113 ± 0.0065
ACGGCCAT | -0.0972 ± 0.0073
GCCCCCGC | -0.102 ± 0.026

Sequence | PBM E-score of 8-mer
GACGCTGA | -0.182 ± 0.085
GTAGCGGA | -0.069 ± 0.069
CGTCGGGA | -0.243 ± 0.0031
CTGGTCGC | -0.0702 ± 0.03
ATTGGCAA | 0.0872 ± 0.0069
ACGCGGAT | 0.0845 ± 0.036
ATTTCCCG | -0.153 ± 0.03
TAGAGGAA | -0.279 ± 0.059
ATCACGCA | 0.19 ± 0.026
AAAGCGCT | 0.0608 ± 0.028
CCTGTTAA | 0.168 ± 0.067
ATAGAACA | 0.0898 ± 0.021
AAAGGTCT | -0.169 ± 0.032
AGAGTGTA | 0.0671 ± 0.0042
CGTCACTA | 0.217 ± 0.013
CCAATCAG | -0.132 ± 0.073
AGCGGCAG | -0.105 ± 0.044
CCGTGTTA | 0.158 ± 0.029
ACCTTTAG | 0.151 ± 0.06
ACTAAGGC | -0.0549 ± 0.052
ATGTACTA | -0.0833 ± 0.037
ATATGATA | 0.0801 ± 0.013
TCAGAGCA | -0.203 ± 0.0079
GCACGGCA | -0.112 ± 0.05
AAATTCCA | -0.0365 ± 0.02

Sequence | PBM E-score of 8-mer
GGGAGGTA | -0.0233 ± 0.075
ACAACAAC | 0.235 ± 0.0043
ACTCAAAT | -0.11 ± 0.082
GACTTAAC | 0.158 ± 0.012
ACGCTGTG | 0.0583 ± 0.06
AATTAATA | -0.0868 ± 0.03
ATAATATA | -0.0059 ± 0.035
ATCACGTG | 0.211 ± 0.012
CGCTCCAG | -0.211 ± 0.091
GAGTGCGC | -0.0493 ± 0.043
AGACACCC | 0.156 ± 0.041
AATCAAGC | -0.000185 ± 0.054
CAACTTAC | 0.0737 ± 0.045
AGGTGTCG | 0.486 ± 0.008
CTGGCCCA | -0.282 ± 0.14
AGCCGCTA | 0.067 ± 0.054
CATCAGGA | -0.308 ± 0.0039
TCGTGCAA | -0.0231 ± 0.017
CGCATGAC | -0.16 ± 0.037
